Test results from publication PMC10726135.
The list shows a part of the results. At the low end of the ranking, values are background and their order means little. The protein was read in a cell extract, so binding may be indirect.

target: T1, HNF4alpha8 (COS-7 nuclear extract) (UniProt P41235-5); experiment: protein-binding microarray; settings: COS-7 nuclear extract on double-stranded Agilent 4x180k PBM; binding buffer, salt, pH and temperature not given; high values mean tight binding; double strand, one strand shown; sequences stand for … in …GCCTAGGGAGATTAGAGTATCGGTCGA
T1 sequence: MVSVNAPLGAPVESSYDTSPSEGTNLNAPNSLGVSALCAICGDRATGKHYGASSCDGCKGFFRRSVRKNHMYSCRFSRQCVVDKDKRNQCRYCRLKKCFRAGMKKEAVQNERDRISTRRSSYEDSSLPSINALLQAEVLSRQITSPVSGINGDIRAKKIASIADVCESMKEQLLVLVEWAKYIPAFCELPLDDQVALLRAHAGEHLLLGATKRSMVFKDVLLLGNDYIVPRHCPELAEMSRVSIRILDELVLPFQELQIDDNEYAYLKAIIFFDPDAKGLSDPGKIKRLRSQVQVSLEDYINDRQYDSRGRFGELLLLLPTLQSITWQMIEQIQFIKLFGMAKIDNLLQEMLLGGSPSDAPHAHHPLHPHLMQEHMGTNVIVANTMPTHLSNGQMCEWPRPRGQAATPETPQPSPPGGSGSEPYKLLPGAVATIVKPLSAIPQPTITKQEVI

| Sequence | binding signal (log2 normalized intensity) |
| --- | --- |
| GGGAGCAGTGGGCATATCTTTTTATCTCTG | -0.397 |
| GGAATGCAGCTCAGACTGCTTCTCTGCTGG | -1.23 |
| AACCTCAGTGTTTGCTCCTAAGGCCTTCAA | 0.000503 |
| AAGGAGAGGGGGCGGGGAGAGGGAAGAGTC | -1.4 |
| AGGGGCCCACCTCCACTCTCATAAAAGAGG | -1.24 |
| TCTTTGCCCCAGCTCGCTCAGCTGGTTGCC | -0.997 |
| TACCTAGGAATGCTATCTAGCATGACAAGA | -1.17 |
| AATGGAGAGGATTTTGGAATGTCGCATAGC | -1.14 |
| ACTTCCTTCAAACCTGGGAAAACTTACGCA | -1.3 |
| TTGAATAGCATTTTGCAGAGACGGCAAGCC | -1.33 |
| ATGCCAAAGAAGCAAAGGTTGGCTAAAGAT | 0.479 |
| ATTACCCTATGTCCCCCGACCCGCCCGACT | 5.78 |
| AATCATCGCACCTAAGGGCACCCTTCCTGC | -1.48 |
| AAAAGTAGATTGTTATTTACCCTACATGGC | 0.365 |
| CCAATAGACATAACTCAAACATCTGACAGA | -1.3 |
| ACCTGACCCAGGCGAGGGTTGCTGCACCGA | -1.28 |
| ACAGCGCCGCCACCCGGTTGGCGCCAATAC | -1.33 |
| TCAGTTGCAGAAAAACAGGTTCTGCAACAC | 0.876 |
| GAGACTCTCTCTCCTCTCCAGCCCATCCTA | 2.13 |
| ATTTTCCCATGGTCTGTAGAAGGCGCTGTG | -0.848 |
| GGAAGTGGCTAGAGGTCGCGAGAGAACTGA | -1.3 |
| AGCCTCTCACAGTAGCCCAGGTCCTTTGGT | 0.598 |
| ACCCTCAGACACACAGTCCACAGGCTATAG | -0.795 |
| TCACTGTGAAGACGTTAGGGGGCAGCAGGG | -0.0779 |
| GAGGAGACCTTTGGATATCATATCATCTTC | 2.39 |

| Sequence | binding signal (log2 normalized intensity) |
| --- | --- |
| TCCATTTAGCTTCAGTCTAAATGATGGCCA | 1.76 |
| CCAAATCATGGAGGTGTGGGGAGTTCCTTC | -0.926 |
| AAGGTTTGTTCTTATCATGCTGTCTCTGAA | 0.778 |
| GTGCCTCAACCGAGCGTCCAAGCTCTTTCC | -1.24 |
| TTTAAAAAAATTCCTCCTTGGATTCCTAAG | -1.35 |
| GTGTGGCAGAAAACGCAATTGCCCTACAGC | 1.24 |
| TTAACTGGACAAGGAGGCTGGGCTGCATAG | -1.16 |
| GGAGCTGCCGCAACATTGTCCAGCAGACAC | -1.35 |
| ATCTCAGCTCACTGTAACCTTTGCCCCCCT | 9.22 |
| TCCTAAACCCCACAGAACAAACAGTACATT | 1.27 |
| GCGCCGGGGAAGCTGTTGGGCGCCGGAACT | -1.3 |
| TCCAGTTGTATCGCCTCCACCTGCACCATT | -0.213 |
| AAACAAAATGCATTTCCTTATTCTTAACAA | -1.34 |
| TGTGCTCCTGTAGAATGACCCCCTGGGCTC | 4.76 |
| AGTAGGGCGTCTCTTAGTATTACCATGTCC | 0.416 |
| AGGAATGCAGCCCTGCCACTCTTTTTTAGA | -0.981 |
| TGTTTATCAGAGCAAAGTTCAATTTCCAAC | 4.31 |
| AGGCAAACTTTATCAAGACTGCAGCCAGGG | -1.24 |
| ATAAACTGGAAAGGGCTTCAGAGTCGATAG | -1.32 |
| TTGGGGCTAATGTCTCTCTGGCCGGAGGGG | -0.523 |
| TGTGATTTGAAATTTGTCCTGGTCACACCA | 1.28 |
| AGGGGGCCTCCTGCCCCAGGAGCAGGATAG | -1.43 |
| TTACAAAGTGGTTGTAGCAGTTCACACTCC | 0.28 |
| ACAGGCTCAGCAAAGTCAGGTCAGTAGCCC | -1.41 |
| AGGGAATCCTGCATTATCAGGCAAGGGTGG | -0.804 |

| Sequence | binding signal (log2 normalized intensity) |
| --- | --- |
| CTTGCCAAGCCTAGTTTTGATTATCACTAC | -1.29 |
| AGGAATTCAACCAATGTGGAGCTGCTGAAC | -1.11 |
| ATGTTAGGCTGGAAAACTGGGCTGTTATTT | 0.577 |
| CTTCGAGCCTGTGGTTTCTCTTTGTATACA | 0.701 |
| TACTGTACTTTGCTCTCAGCACACTCTGGT | 2.41 |
| GCTTATCGTCCCTTCCCTCTGTCTTCAAAA | 1.04 |
| CCCTGACCAAGGGTCATGCTGGTCTCCTTG | 2.46 |
| ACTTTGCCCCCAAGAAAAGGTTCCTATGTA | 2.18 |
| AAACATTCCTCCCTCCCTCTTCCCTCATAT | 2.52 |
| GGTTGCTGTTATCTTCATTTATAGATAAGC | -0.228 |
| ACATCTCCCACTGTGGACTCTGAGCCTCCT | 4.54 |
| AGCATCGCTGGACTCTGCTCCTAAGGCAGG | 3.26 |
| GATCGAAAGGACATTGTCCATCACCTGGCT | -1.26 |
| GGTCAGACATGGCTGTATGTGACATGGACA | 1.57 |
| GGTGGGGCCGGGGTGGTGGTTACCGGCAGA | -0.576 |
| TCGGCTGCCTCTCCAAACAAATTGAGAAAG | -1.09 |
| CCAAAGCTACACAGATAAGCCATTCGTAAC | -1.43 |
| TGAATTTGGTACCTCCCCCCACACCATTAG | 4.99 |
| TTCTGGAGGTGAGAAGCCTGAAATGAGTTT | -1.12 |
| TAGAGGGTAAACAGCCTCTAAGCACGGCCA | -1.24 |
| ATAAACAGAAGCAATCACAAGGAATGCCCT | 1.32 |
| CTTTGTTTACTTAACCTTTGATCATATGCA | 5.75 |
| AAGCATGTGATCTACTCCCTGTTCTTACAC | 0.168 |
| TTGGCAATTACCCAACAGACTTTCCCCCTA | 4.13 |
| TATCTCGTCACCTTTATCGAACCTATTGTT | 1.16 |

| Sequence | binding signal (log2 normalized intensity) |
| --- | --- |
| TCACACACACACACACACACACCCCACACA | 2.2 |
| CTGTACCCTATGCACCCCACAGTGCTGTTT | 1.71 |
| CTTGGTGCCTCTGAGCTAAGATAACCATCA | -1.38 |
| CTGTCTAATTTTGCACAGCCAGCCTGAGGC | -1.24 |
| AAACAGGGACAGATGTTTGGTTGAGCAAGC | -1.35 |
| TAGCTAAGCTTCACTGACATTCCAGCCACT | -1.46 |
| TTATCTTGGAACCTCAAGAGGAGAAGAATT | -1.25 |
| GCATTCCACCAAATCTTACCTAAGGAAGTT | -1.22 |
| AGATTGCTCAGAGGCACAGTCTGCTTTCAG | -1.38 |
| ACTGAACCCAGGCATACTCAGTTATCAACC | -1.2 |
| ATGGCCGCTCCGCGAGGTGAGCCATTGGCT | -1.31 |
| AACTGCAAGGAAATCTGGGAAATGTAGCTT | -1.16 |
| CCCTATGTGTTTCTTCTGCTTCCCTAGGGA | 0.254 |
| GAGCAAAAAGGCCGTTCAAAGGCAGCCTTC | -1.42 |
| GGCGACATCAAAGCATTTGGAGATTGCCAC | -1.27 |
| AGAGCATCTGAGTGTCAAAAACAATACCAG | -1.34 |
| TCCGGAGAACACGGAGTCCTTCTGGGGCTA | -1.36 |
| TAAACAACACAGAACTAGCCAGACCTGTTC | -1.41 |
| GATCAAGCAGGTGACCTTCGATCACCTCAA | 5.59 |
| GAGCAGTGGGAGGTGAGGAAAACGGAGACA | -1.38 |
| TGCCTCCTAAGGCCTCCAGAAGGAATGCAG | -1.29 |
| CCCCCAGTGCACCTTAATAAGCACATTCCT | 1.26 |
| AAGTCCACGTGAGAGGGTCGTGATCGATTG | 1.86 |
| CAGGAGATGTGTGAAGGACACAGAATGACT | -1.37 |
| CACACTGCAGCAAAACTTTAGGACTTTGAA | 4.12 |

| Sequence | binding signal (log2 normalized intensity) |
| --- | --- |
| ACCCGTGCTTGGAATGCTATTTGCATTGAC | 1.04 |
| CCCCTGGCCTCACCCTTGTCCCTGAGGCTG | 1.97 |
| TCCCCATTCCTAAGTTCCAAAGGCCATCCA | 3.93 |
| TTATATCAGAGGAATGTCTGACCAACCTGT | 0.807 |
| TGTGACCTTTGGAAGGTGGGGGAGGAGACA | 3.69 |
| TGCTTGGCCTCTCCACTTGGGTATCAGATA | 0.526 |
| ACTACTGCTTTAGGCCTCAAGACAAACAAT | -1.28 |
| GAATAATCCCCTCCTGGACTTTGGTCTCAT | 8 |
| TCTGACCAGGCTGATTTAGCTATTTGACCT | 4.7 |
| GAGAGAATGACCCTTGCTTGACCCATTATG | 3.34 |
| AAGGGTGAAAAGATAGCTTGAGGCCAGCTC | -1.3 |
| AACCACCACTGGGCAATTGGTTTCCGCTAA | -1.39 |
| GCCGGAGGGGAGGTTATCTCGGGGCTGGCA | -1.28 |
| CCCTGCCCTCAGGGAATCCTGCATTATCAG | 0.0972 |
| GCTGTAGTGTGTAAGTATGCTCACTGACCT | 3.61 |
| CTAAGAGATTTGAATATGTACATGGACTTT | 6.92 |
| CTATGTCCCTGACTGTGTGGCTTGCCTCTC | 0.635 |
| AGAAGGCAGCCGATTAACACAAAAAGGCAG | -1.35 |
| CCACTTTGAATCAGGAGAGCATCTGAGTGT | 0.742 |
| GTGTGCTGAGAGTTGGAAAATGTCGTTTTC | 0.865 |
| CTTGGGTATCAGATAGTCCAATGTCCAGAA | 4.27 |
| AGGGTGTTGTGGAATGTGCTTGGACCTGCT | 2.38 |
| AGACAACCTTTGGTCACTTGTAAGATACTG | 2.81 |
| GAAAGAGCCCCTTTGTCCATTATCTCACTT | 0.671 |
| TCAGCTGGTCCTTCAAGTGTGACCCTGAAC | 4.07 |

| Sequence | binding signal (log2 normalized intensity) |
| --- | --- |
| CTCCATTTCCTTCTAGCTCCCCAATAGACA | 3.44 |
| CAGACCAGTAACCTAAGTCAGGAAACTGAC | -1.29 |
| GCCTTTTATCCCTTTTGAGGCTGGAGGATC | 0.34 |
| TCACAATAGGGTTCAAACTCCTATGTGAAT | 2.02 |
| AGAATGGAGAAAACAACATTCCTTGTGTTT | 0.48 |
| TACTTAGTGGCTCCTAGAATTATCCCACCC | 2.57 |
| ACAAACCTTATCTCTCAAGGTTCCCAGCTA | -1.28 |
| TCCAAATCTAAGATATATCACCTGCCAGCT | -1.37 |
| GTACCTTGACCTTCTCTGTTAACCCTTTGC | 4.52 |
| CCTTGTGAGCAGGATTATAGTTTATCTACC | 0.51 |
| ATGGATTTGATAGAGTGATAGCATGGTTTA | 0.979 |
| AAGGCAAAAGAGACAGGACTTTACAAAGTA | -0.988 |
| AACCCTTGCACTGCTGGTTTTTGTCAAAGA | 1.77 |
| GCACCCCTGCCCCCATGTTGTTCAAGGGTC | 4.83 |
| TGCATAAGGACCTCCTGAGATAGGTATGAT | -1.26 |
| TACACTGCCTCCTTCAAGGATTAGCAGATA | -1.18 |
| TCTGGAATGTGGAGAATGGCAAGAGATAAG | -1.28 |
| TGATGCCCTTTGGCCTTTCTAATTATTTAC | 4.4 |
| CTTATCAGCAGATAAGGGCAGAGAGGCTGC | -1.31 |
| AAAAGACCAAAAAGGCTAACTTACCCGCTT | -1.27 |
